# Data: paper PMC5892938
# The list shows a part of the results. At the low end of the ranking the order means little.
# Biological target: GST-SBP-SLBP (stem-loop binding protein) (UniProt Q14493)
# Experiment: targeted RNA Bind-n-Seq;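 note: DESeq read counts versus GST-SBP nonspecific binding control pulldown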
# Conditions: RBNS binding buffer: 25 mM Tris pH 7.5, 150 mM KCl, 3 mM MgCl2, 0.1% Tween, 0.5 mg/mL BSA, 1 mM DTT; 27 nM protein, 750 pM RNA pool; temperature not stated; high values mean tight binding
row,Sequence,binding signal (log2 fold change)
1,GGUCACGUCUCAAUCAACUCAUCGUCAGGAGUUUACUCCUGCUAACUCAACAGCUCGCAGUCAAG,0.304
2,GGUCACGUCUCAAUCAACUCCUACGAGGGGGGGAAAACCCCUUUGCCCUCAAUAUCAACAGCUCGCAGUCAAG,0.0313
3,GGUCACGUCUCAAUCAACUCCAACGAGGGGGGGAAAACCCCUUUACCCUCUACAUCAACAGCUCGCAGUCAAG,0.0135
4,GGUCACGUCUCAAUCAACUCUUCGCCCAGGGAAAUCCCUGGUAUUUUCAACAGCUCGCAGUCAAG,-0.0922
5,GGUCACGUCUCAAUCAACUCACAAGAGGGGGGGAAAACCCCUUUACCCUCAACCUCAACAGCUCGCAGUCAAG,0.0386
6,GGUCACGUCUCAAUCAACUCAGUUUCCAGGGAAACCCCUGGCUUUCUCAACAGCUCGCAGUCAAG,-0.133
7,GGUCACGUCUCAAUCAACUCUUCGUCAGGAGUUUCCUCCUGUAUUUUCAACAGCUCGCAGUCAAG,0.184
8,GGUCACGUCUCAAUCAACUCCAAAGAGGGGGGGAAAACCCCUUUACCCUCACCGUCAACAGCUCGCAGUCAAG,-0.231
9,GGUCACGUCUCAAUCAACUCUUUCCCAGGAGUUUCCUCCUGCAUAUUCAACAGCUCGCAGUCAAG,-0.0724
10,GGUCACGUCUCAAUCAACUCAUCGCCCAGGGAAAUCCCUGGUAAUUUCAACAGCUCGCAGUCAAG,0.0535
11,GGUCACGUCUCAAUCAACUCUUUCCCCAGGGAAAGCCCUGGCAAACUCAACAGCUCGCAGUCAAG,0.0199
12,GGUCACGUCUCAAUCAACUCUAUUUCCAGGGAAAACCCUGGUUAAUUCAACAGCUCGCAGUCAAG,-0.0107
13,GGUCACGUCUCAAUCAACUCUUCUCCAGGAGUUUUCUCCUGCAUUCUCAACAGCUCGCAGUCAAG,-0.0846
14,GGUCACGUCUCAAUCAACUCAUUAGAGGGGGGGAAAACCCCUUUGCCCUCACACUCAACAGCUCGCAGUCAAG,-0.211
15,GGUCACGUCUCAAUCAACUCUUCCCCCAGGGAAAACCCUGGCUAUCUCAACAGCUCGCAGUCAAG,0.213
16,GGUCACGUCUCAAUCAACUCGUUUUCAGGAGUUUUCUCCUGCAUAUUCAACAGCUCGCAGUCAAG,-0.176
17,GGUCACGUCUCAAUCAACUCUUUCUCAGGAGUUUCCUCCUGCUAUCUCAACAGCUCGCAGUCAAG,0.0943
18,GGUCACGUCUCAAUCAACUCUACUUCCAGGGAAAUCCCUGGUUUAUUCAACAGCUCGCAGUCAAG,-0.26
19,GGUCACGUCUCAAUCAACUCAUCUUCCAGGGAAAGCCCUGGCUUUCUCAACAGCUCGCAGUCAAG,0.425
20,GGUCACGUCUCAAUCAACUCAAUCCCAGGAGUUUCCUCCUGUAAAGUCAACAGCUCGCAGUCAAG,0.0752
21,GGUCACGUCUCAAUCAACUCUAUUUCAGGAGUUUCCUCCUGCAAUUUCAACAGCUCGCAGUCAAG,0.0678
22,GGUCACGUCUCAAUCAACUCUACUCCAGGAGUUUUCUCCUGCUUUCUCAACAGCUCGCAGUCAAG,0.167
23,GGUCACGUCUCAAUCAACUCUUCCCCAGGAGUUUUCUCCUGCUAUCUCAACAGCUCGCAGUCAAG,0.0907
24,GGUCACGUCUCAAUCAACUCAUCCUCCAGGGAAAUCCCUGGUUAUUUCAACAGCUCGCAGUCAAG,0.0155
25,GGUCACGUCUCAAUCAACUCAUGUCCAGGAGUUUCCUCCUGUUAAUUCAACAGCUCGCAGUCAAG,0.168

row,Sequence,binding signal (log2 fold change)
1,GGUCACGUCUCAAUCAACUCAAUCUCAGGAGUUUACUCCUGUUAAUUCAACAGCUCGCAGUCAAG,0.123
2,GGUCACGUCUCAAUCAACUCUACAGAGGGGGGGAAAACCCCUUUACCCUCCACAUCAACAGCUCGCAGUCAAG,0.154
3,GGUCACGUCUCAAUCAACUCUACUUCAGGAGUUUCCUCCUGUAAAUUCAACAGCUCGCAGUCAAG,-0.0596
4,GGUCACGUCUCAAUCAACUCAAUCUCAGGAGUUUGCUCCUGCUUACUCAACAGCUCGCAGUCAAG,0.0138
5,GGUCACGUCUCAAUCAACUCUUCUUCAGGAGUUUACUCCUGCAUUCUCAACAGCUCGCAGUCAAG,0.0621
6,GGUCACGUCUCAAUCAACUCACAAGAGGGGGGGAAAACCCCUUUGCCCUCAUCAUCAACAGCUCGCAGUCAAG,-0.175
7,GGUCACGUCUCAAUCAACUCAAUCUCAGGAGUUUCCUCCUGCAUAGUCAACAGCUCGCAGUCAAG,-0.00463
8,GGUCACGUCUCAAUCAACUCUAUUCCCAGGGAAAACCCUGGUUUUUUCAACAGCUCGCAGUCAAG,-0.0575
9,GGUCACGUCUCAAUCAACUCAUCGCCAGGAGUUUUCUCCUGUUAUCUCAACAGCUCGCAGUCAAG,0.042
10,GGUCACGUCUCAAUCAACUCAAUUCCCAGGGAAAUCCCUGGCAUUUUCAACAGCUCGCAGUCAAG,-0.0589
11,GGUCACGUCUCAAUCAACUCUUCUCCCAGGGAAAGCCCUGGCAAACUCAACAGCUCGCAGUCAAG,0.187
12,GGUCACGUCUCAAUCAACUCUUCGUCAGGAGUUUUCUCCUGCUAUUUCAACAGCUCGCAGUCAAG,0.0646
13,GGUCACGUCUCAAUCAACUCAACUUCAGGAGUUUCCUCCUGUAUAUUCAACAGCUCGCAGUCAAG,-0.0274
14,GGUCACGUCUCAAUCAACUCAUCUCCCAGGGAAACCCCUGGUUAUUUCAACAGCUCGCAGUCAAG,-0.161
15,GGUCACGUCUCAAUCAACUCAUCGUCAGGAGUUUCCUCCUGCUUAUUCAACAGCUCGCAGUCAAG,0.143
16,GGUCACGUCUCAAUCAACUCAGUCCCAGGAGUUUUCUCCUGCAUUCUCAACAGCUCGCAGUCAAG,-0.0238
17,GGUCACGUCUCAAUCAACUCCCCAGAGGGGGGGAAAACCCCUUUACCCUCAUCGUCAACAGCUCGCAGUCAAG,0.0422
18,GGUCACGUCUCAAUCAACUCAUCUCCAGGAGUUUGCUCCUGCAUAUUCAACAGCUCGCAGUCAAG,0.0514
19,GGUCACGUCUCAAUCAACUCUUUCUCCAGGGAAAGCCCUGGCUAUUUCAACAGCUCGCAGUCAAG,0.155
20,GGUCACGUCUCAAUCAACUCUUUUCCCAGGGAAACCCCUGGUUUACUCAACAGCUCGCAGUCAAG,-0.027
21,GGUCACGUCUCAAUCAACUCUUCUCCCAGGGAAACCCCUGGCAUUCUCAACAGCUCGCAGUCAAG,0.304
22,GGUCACGUCUCAAUCAACUCAUCUUCCAGGGAAAACCCUGGUAUUUUCAACAGCUCGCAGUCAAG,0.0412
23,GGUCACGUCUCAAUCAACUCAACUCCAGGAGUUUACUCCUGUAUUUUCAACAGCUCGCAGUCAAG,-0.0849
24,GGUCACGUCUCAAUCAACUCUUCUCCCAGGGAAACCCCUGGCUAACUCAACAGCUCGCAGUCAAG,-0.13
25,GGUCACGUCUCAAUCAACUCUUCGUCCAGGGAAACCCCUGGCAAAUUCAACAGCUCGCAGUCAAG,0.0121

row,Sequence,binding signal (log2 fold change)
1,GGUCACGUCUCAAUCAACUCUUCGUCAGGAGUUUACUCCUGCAUUUUCAACAGCUCGCAGUCAAG,0.0339
2,GGUCACGUCUCAAUCAACUCAUUCUCAGGAGUUUUCUCCUGUUUUUUCAACAGCUCGCAGUCAAG,-0.205
3,GGUCACGUCUCAAUCAACUCAAUUCCCAGGGAAAUCCCUGGUUAAUUCAACAGCUCGCAGUCAAG,0.00888
4,GGUCACGUCUCAAUCAACUCAAUCCCCAGGGAAAACCCUGGUAUAUUCAACAGCUCGCAGUCAAG,0.0154
5,GGUCACGUCUCAAUCAACUCAUCGCCCAGGGAAAUCCCUGGUUAAUUCAACAGCUCGCAGUCAAG,-0.116
6,GGUCACGUCUCAAUCAACUCCAUCGAGGGGGGGAAAACCCCUUUGCCCUCAAAAUCAACAGCUCGCAGUCAAG,-0.00682
7,GGUCACGUCUCAAUCAACUCUUAAGAGGGGGGGAAAACCCCUUUACCCUCACAUUCAACAGCUCGCAGUCAAG,-0.484
8,GGUCACGUCUCAAUCAACUCUUCCCCCAGGGAAACCCCUGGUUAACUCAACAGCUCGCAGUCAAG,0.0949
9,GGUCACGUCUCAAUCAACUCAAUCCCAGGAGUUUACUCCUGCUAAUUCAACAGCUCGCAGUCAAG,0.125
10,GGUCACGUCUCAAUCAACUCUUCUCCCAGGGAAAACCCUGGUUUUUUCAACAGCUCGCAGUCAAG,-0.281
11,GGUCACGUCUCAAUCAACUCUAGUCCCAGGGAAAACCCUGGCAAUCUCAACAGCUCGCAGUCAAG,0.00929
12,GGUCACGUCUCAAUCAACUCCCCUGAGGGGGGGAAAACCCCUUUACCCUCUAAAUCAACAGCUCGCAGUCAAG,-0.157
13,GGUCACGUCUCAAUCAACUCAUAAGAGGGGGGGAAAACCCCUUUACCCUCCUAAUCAACAGCUCGCAGUCAAG,0.12
14,GGUCACGUCUCAAUCAACUCUUUCUCCAGGGAAAGCCCUGGUAAUUUCAACAGCUCGCAGUCAAG,0.0225
15,GGUCACGUCUCAAUCAACUCAAUAGAGGGGGGGAAAACCCCUUUACCCUCCAAUUCAACAGCUCGCAGUCAAG,0.12
16,GGUCACGUCUCAAUCAACUCAUUCCCAGGAGUUUACUCCUGCUAUCUCAACAGCUCGCAGUCAAG,-0.0401
17,GGUCACGUCUCAAUCAACUCAUUAGAGGGGGGGAAAACCCCUUUACCCUCAUUCUCAACAGCUCGCAGUCAAG,0.259
18,GGUCACGUCUCAAUCAACUCUAUCUCCAGGGAAAGCCCUGGCUAACUCAACAGCUCGCAGUCAAG,0.0627
19,GGUCACGUCUCAAUCAACUCAGUUUCCAGGGAAACCCCUGGCUUAUUCAACAGCUCGCAGUCAAG,-0.0969
20,GGUCACGUCUCAAUCAACUCAUCGCCAGGAGUUUUCUCCUGUAAAUUCAACAGCUCGCAGUCAAG,-0.000177
21,GGUCACGUCUCAAUCAACUCAUUCUCAGGAGUUUCCUCCUGCUUUGUCAACAGCUCGCAGUCAAG,0.0657
22,GGUCACGUCUCAAUCAACUCCUAAGAGGGGGGGAAAACCCCUUUGCCCUCGUAUUCAACAGCUCGCAGUCAAG,-0.0592
23,GGUCACGUCUCAAUCAACUCAUUCUCCAGGGAAACCCCUGGUUUAUUCAACAGCUCGCAGUCAAG,-0.11
24,GGUCACGUCUCAAUCAACUCCAAAGAGGGGGGGAAAACCCCUUUACCCUCACAAUCAACAGCUCGCAGUCAAG,-0.515
